Assay [1] deals with GST-tagged full length survivin (human) (UniProt O15392). Briefly: pull-down; GST-tagged survivin proteins on glutathione Sepharose 4B beads incubated 1 h at RT with 35S-methionine-labelled in vitro translated PSD (reticulocyte lysate); PhosphoImager; only the target purified.
Assay [2] deals with GST-tagged C-terminus of survivin (SVN_(90-142)) (human) (UniProt O15392). Described as above.
Assay [3] concerns the target GST-tagged N-terminus and BIR domain of survivin (SVN_(1-90)) (human) (UniProt O15392). The assay is described as above.
Assay [4] concerns the target survivin (endogenous, HeLa) (human (endogenous in HeLa)) (UniProt O15392). As to the kind of experiment: co-IP; endogenous survivin precipitated from HeLa cell extracts with anti-survivin antibodies on protein A/G Sepharose or dynabeads; blot with anti-PSD.
Assay [5] deals with survivin_(T34E) (human) (UniProt O15392). Briefly: co-IP; IP of survivin T34A and T34E with PSD (Fig. S3A); cells and antibodies not given.
The target in assay [6] is survivin_(T34A) (human) (UniProt O15392). Described as above.
Assay [7] deals with FLAG–survivin (human) (UniProt O15392). As to the kind of experiment: co-IP; HEK293T transiently co-transfected with FLAG or FLAG–survivin and untagged PSD; anti-FLAG M2 affinity gel, 2 h at 4°C; lysis buffer 50 mM Tris-HCl pH 7.4, 150 mM NaCl, 1 mM EDTA, 1% Triton X-100; blot with anti-PSD.

Amino acid sequences for entries named in this document (tags omitted). A change or cut given only in a name is not applied to a line headed by its entry. Chains listed by the source or under a name are the forms on record and can include a tag or linker. Residues count along the entry.
UniProt O15392: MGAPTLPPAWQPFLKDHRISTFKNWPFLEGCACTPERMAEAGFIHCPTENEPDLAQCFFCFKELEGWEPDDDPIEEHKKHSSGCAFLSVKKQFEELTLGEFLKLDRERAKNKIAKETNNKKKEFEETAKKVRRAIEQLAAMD
GST-tagged N-terminus and BIR domain of survivin (SVN_(1-90)): residues 1-90 of O15392
GST-tagged C-terminus of survivin (SVN_(90-142)): residues 90-142 of O15392

No constants are given. Whether binding was seen depends on the method and setting. Binding seen in cells or lysates may run through a third protein. Some results given as binding are weak or reduced against the parent protein; the word gives no strength. For some assays here: Sequences can lack the tags named with a protein.

B1: ^35S-labelled in vitro translated PSD (enzyme, UniProt Q9UG56 1-409)
chain: MATSVGHRCLGLLHGVAPWRSSLHPCEITALSQSLQPLRKLPFRAFRTDARKIHTAPARTMFLLRPLPILLVTGGGYAGYRQYEKYRERELEKLGLEIPPKLAGHWEVALYKSVPTRLLSRAWGRLNQVELPHWLRRPVYSLYIWTFGVNMKEAAVEDLHHYRNLSEFFRRKLKPQARPVCGLHSVISPSDGRILNFGQVKNCEVEQVKGVTYSLESFLGPRMCTEDLPFPPAASCDSFKNQLVTREGNELYHCVIYLAPGDYHCFHSPTDWTVSHRRHFPGSLMSVNPGMARWIKELFCHNERVVLTGDWKHGFFSLTAVGATNVGSIRIYFDRDLHTNSPRHSKGSYNDFSFVTHTNREGVPMRKGEHLGEFNLGSTIVLIFEAPKDFNFQLKTGQKIRFGEALGSL
modifications: 35S-methionine-labelled
As for B1, the values for the binding entry in assay [1], in assay [2] and in assay [3] were “binds”, “no binding” and “binds”, respectively.

B2: phosphatidylserine decarboxylase (endogenous, HeLa) (enzyme, UniProt Q9UG56 53-409)
chain: IHTAPARTMFLLRPLPILLVTGGGYAGYRQYEKYRERELEKLGLEIPPKLAGHWEVALYKSVPTRLLSRAWGRLNQVELPHWLRRPVYSLYIWTFGVNMKEAAVEDLHHYRNLSEFFRRKLKPQARPVCGLHSVISPSDGRILNFGQVKNCEVEQVKGVTYSLESFLGPRMCTEDLPFPPAASCDSFKNQLVTREGNELYHCVIYLAPGDYHCFHSPTDWTVSHRRHFPGSLMSVNPGMARWIKELFCHNERVVLTGDWKHGFFSLTAVGATNVGSIRIYFDRDLHTNSPRHSKGSYNDFSFVTHTNREGVPMRKGEHLGEFNLGSTIVLIFEAPKDFNFQLKTGQKIRFGEALGSL
With B2, the binding entry in assay [4] is “binds”.

B3: PSD (co-immunoprecipitation with the survivin T34 mutants, Fig. S3A) (enzyme, UniProt Q9UG56 53-409)
chain: IHTAPARTMFLLRPLPILLVTGGGYAGYRQYEKYRERELEKLGLEIPPKLAGHWEVALYKSVPTRLLSRAWGRLNQVELPHWLRRPVYSLYIWTFGVNMKEAAVEDLHHYRNLSEFFRRKLKPQARPVCGLHSVISPSDGRILNFGQVKNCEVEQVKGVTYSLESFLGPRMCTEDLPFPPAASCDSFKNQLVTREGNELYHCVIYLAPGDYHCFHSPTDWTVSHRRHFPGSLMSVNPGMARWIKELFCHNERVVLTGDWKHGFFSLTAVGATNVGSIRIYFDRDLHTNSPRHSKGSYNDFSFVTHTNREGVPMRKGEHLGEFNLGSTIVLIFEAPKDFNFQLKTGQKIRFGEALGSL
Regarding B3, the binding result in assay [5] and in assay [6] was “binds” throughout.

B4: catalytically inactive PSD (S378A) (enzyme, UniProt Q9UG56 53-409)
chain: IHTAPARTMFLLRPLPILLVTGGGYAGYRQYEKYRERELEKLGLEIPPKLAGHWEVALYKSVPTRLLSRAWGRLNQVELPHWLRRPVYSLYIWTFGVNMKEAAVEDLHHYRNLSEFFRRKLKPQARPVCGLHSVISPSDGRILNFGQVKNCEVEQVKGVTYSLESFLGPRMCTEDLPFPPAASCDSFKNQLVTREGNELYHCVIYLAPGDYHCFHSPTDWTVSHRRHFPGSLMSVNPGMARWIKELFCHNERVVLTGDWKHGFFSLTAVGATNVGSIRIYFDRDLHTNSPRHSKGSYNDFSFVTHTNREGVPMRKGEHLGEFNLGATIVLIFEAPKDFNFQLKTGQKIRFGEALGSL
Consider B4, for which the binding entry in assay [7] is on record as “no binding”.

B5: untagged wild-type PSD (enzyme, UniProt Q9UG56 53-409)
chain: IHTAPARTMFLLRPLPILLVTGGGYAGYRQYEKYRERELEKLGLEIPPKLAGHWEVALYKSVPTRLLSRAWGRLNQVELPHWLRRPVYSLYIWTFGVNMKEAAVEDLHHYRNLSEFFRRKLKPQARPVCGLHSVISPSDGRILNFGQVKNCEVEQVKGVTYSLESFLGPRMCTEDLPFPPAASCDSFKNQLVTREGNELYHCVIYLAPGDYHCFHSPTDWTVSHRRHFPGSLMSVNPGMARWIKELFCHNERVVLTGDWKHGFFSLTAVGATNVGSIRIYFDRDLHTNSPRHSKGSYNDFSFVTHTNREGVPMRKGEHLGEFNLGSTIVLIFEAPKDFNFQLKTGQKIRFGEALGSL
In the case of B5, in assay [7], the binding entry is given as “binds”.

The record behind these values is article PMC12377709.
